# Source: paper PMC6919601, “Identification of Plasmodium dipeptidyl aminopeptidase allosteric inhibitors by high throughput screening” (PLoS ONE, 2019)
# Hit rate of the full screen: of about 110,000 compounds, about 230 (0.21%) showed an effect of 50% or more. The list shows a part of the results.
# Biological target: DPAP1 (Plasmodium falciparum, UniProt Q8IIJ9)
# Assay: primary screen, percent inhibition; read by cleavage of a fluorogenic dipeptide substrate; higher = more effect of the substance
# Parameters: species or system P. falciparum D10 trophozoite lysates; single well
# 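Further: 30 min substrate incubation versus DMSO and 10 µM JCP410 controls.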
# Sequence of DPAP1 (Q8IIJ9 whole entry, looked up): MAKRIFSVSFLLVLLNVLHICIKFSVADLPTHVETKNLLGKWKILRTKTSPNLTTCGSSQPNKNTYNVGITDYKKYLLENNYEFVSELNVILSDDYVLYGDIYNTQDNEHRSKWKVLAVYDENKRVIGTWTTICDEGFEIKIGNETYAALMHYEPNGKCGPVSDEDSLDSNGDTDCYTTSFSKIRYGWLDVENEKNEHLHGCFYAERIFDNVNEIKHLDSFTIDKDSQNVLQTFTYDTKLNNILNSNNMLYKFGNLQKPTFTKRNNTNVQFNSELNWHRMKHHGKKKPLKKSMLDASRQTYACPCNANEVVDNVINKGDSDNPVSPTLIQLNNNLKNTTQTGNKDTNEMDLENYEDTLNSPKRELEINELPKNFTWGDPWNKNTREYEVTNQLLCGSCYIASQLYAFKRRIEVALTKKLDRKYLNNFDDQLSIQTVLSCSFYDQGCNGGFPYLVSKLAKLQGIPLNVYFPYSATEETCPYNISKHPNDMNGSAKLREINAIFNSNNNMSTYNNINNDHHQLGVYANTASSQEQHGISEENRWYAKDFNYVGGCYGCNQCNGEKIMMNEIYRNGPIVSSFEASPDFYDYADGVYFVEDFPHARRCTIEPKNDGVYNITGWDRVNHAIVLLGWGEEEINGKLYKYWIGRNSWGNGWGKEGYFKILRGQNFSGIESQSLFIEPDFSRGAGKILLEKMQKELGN
row,SMILES,% Inhibition @ 10 uM
1,Cc1nc2c(c(C)nn2-c2ccccc2)c(C)c1CCC(=O)NCc1cccnc1,5.65%
2,N#Cc1cc2c(=O)n3ccccc3nc2n(-c2nccs2)c1=O,1.12%
3,Cc1ccc(-c2noc(CN(C(=O)c3ccc(C)c(Cl)c3)C(C)C)n2)cc1,-2.14%
4,COc1ccc(OC)c2c1CCC1NCCOC21 (stereo not drawn),0.795%
5,c1ccc(-c2nnc(COc3ccc4ccccc4c3)o2)cc1,-6.72%
6,COC(=O)C(c1ccccc1)N1CCCCCC1 (stereo not drawn),-7.5%
7,CCCn1c(=O)c(C(=O)Nc2nc(-c3ccc(Cl)cc3)cs2)c(O)c2ccccc21,4.33%
8,Cc1sc2nc(-c3ccco3)oc(=O)c2c1C,1.8%
9,COc1ccc(S(=O)(=O)NC(C)C)cc1OC,0.345%
10,COc1ccc2cc3cc(C(=O)NCCCN4CCC(C)CC4)oc3nc2c1,-3.35%
11,CN(Cc1ccc(F)c(Br)c1)CC(O)c1ccccc1 (stereo not drawn),-5.26%
12,Cc1ccc(CN2CCC(CNC(=O)CC(C)n3nc(C)cc3C)CC2)cc1 (stereo not drawn),-6.11%
13,CCCCN1C(=O)C2Cc3c([nH]c4ccccc34)C(c3cccnc3)N2C1=O (stereo not drawn),-0.0372%
14,Cc1ccc(C2=NS(=O)(=O)N(C)C(C(=O)Nc3cnn(CC(=O)N4CCOCC4)c3)=C2)cc1,-1.06%
15,COC(=O)/C(=C1\Oc2c(c(=O)oc3ccccc23)S1)C(F)(F)F,18.5%
16,O=S(=O)(c1ccc(Cl)nc1)N1CCCc2ccccc21,-1.88%
17,Cc1ccc(C)c(OCC(=O)Nc2ccccc2)c1,1.08%
18,COc1ccc(CCNC(=O)c2ccc(-n3cnc4cccnc43)cc2)cc1OC,6.16%
19,CC1CC(S)=Nc2ccccc2N1C(=O)Nc1ccccc1 (stereo not drawn),0.583%
20,Nc1nnnn1/N=C/c1ccc(-c2cccc(Cl)c2Cl)o1,1.13%
21,CCOC(=O)N1CCN(C(=O)CN(c2cccc(C(F)(F)F)c2)S(=O)(=O)c2ccccc2)CC1,2.55%
22,CCN1C(=O)S/C(=C\c2cccc(OC)c2OC(C)C)C1=O,-3.41%
23,O=C(COCc1cc(-c2ccc(F)cc2)on1)NCc1cccs1,-3.1%
24,COC(=O)c1ccc(S(=O)(=O)c2ccccc2)cc1,-0.178%
25,c1ccc(N2CCN(Cc3cccs3)CC2)nc1,-2.56%
26,CCN(CC)c1nc2c(c(=O)n(C)c(=O)n2C)n1CC(=O)c1ccccc1,-4.89%

row,SMILES,% Inhibition @ 10 uM
1,COc1ccccc1Nc1ccccc1C(=O)N1CCOCC1,1.67%
2,CCOc1ccc(S(=O)(=O)/N=C(\NC)c2ccccc2)cc1,1.31%
3,Cc1cc(-c2ccccc2)c2c(C)c(C)sc2n1,1.4%
4,c1ccc2c(c1)c(NCC1CCCO1)nn1nnnc21 (stereo not drawn),-1.34%
5,CCCC1=C(C(=O)OCC)C(c2ccccc2OC)NC(=O)N1 (stereo not drawn),8.98%
6,COc1ccc(NC(=O)c2ccccc2Cl)cc1OC,-1.5%
7,Cc1ccc(S(=O)(=O)N2CCCC(C(=O)N3CCC4(CC3)OCCO4)C2)cc1 (stereo not drawn),-1.34%
8,c1ccc(CCc2nc(-c3ccc(-n4cccc4)cc3)no2)cc1,-36.9%
9,Cc1cc(N2CCCC2)n2nc(C)c(-c3ccccc3)c2n1,3.19%
10,CCN1CCC(NCCc2ccc(F)cc2)CC1,-5.94%
11,Cc1cccc(S(=O)(=O)Nc2ccc(Cl)c(C(F)(F)F)c2)c1,-1.16%
12,CCOC(=O)C1CC(=O)OC12CCOC(C)(C)C2 (stereo not drawn),5.66%
13,CC(C)C(C(=O)NC1CCCCCC1)N1Cc2ccccc2C1=O (stereo not drawn),4.6%
14,O=C(NCc1ccc2c(c1)OCO2)c1cc2c(s1)-c1ccccc1S(=O)(=O)C2,4.4%
15,CCN(CC)c1c(S(=O)(=O)c2ccc(C)cc2)cnc2ccccc12,-7.48%
16,Cc1ccc(N(Cc2ccc(F)cc2)C(=O)COc2ccc3ccccc3c2)cc1,-1.8%
17,Cc1nc2c(c(C)nn2C)c(C)c1CCC(=O)NCC(C)c1ccccc1 (stereo not drawn),-2.45%
18,C#CCOc1ccc(C2C3=C(CCCC3=O)N(CCC(=O)O)C3=C2C(=O)CCC3)cc1Cl,-2.22%
19,CCCN1CCC(N2CCCCC2)CC1,-0.303%
20,Cc1cc(C)nc(N2N=C(c3ccccc3)CC2=O)n1,-3.33%
21,CNc1oc(/C=C/c2ccc(F)cc2)nc1C#N,-2.57%
22,CN1CCN(C(=O)Nc2cccc3ccccc23)CC1,6.06%
23,Cc1sc(NC(=O)Nc2ccccc2)c(C(N)=O)c1C,1.84%
24,CCOC(=O)c1cc2c(s1)-c1c(C)cccc1OC2,0.231%
25,Cc1nc(C)c(NC(=O)NC(C)(C)C)cc1NC(=O)NC(C)(C)C,5.7%
